Reference: the supplement of paper PMC3334620
Over roughly 33,000 sequences, “E-score (-0.5 to 0.5)” has its median near -0.053; the highest 2% begin near 0.37. This is one part of the list.

What follows are sequences tested against Hap1 (UniProt P0CE41) (assay: PBM E-score (8-mer binding enrichment) (E-score (-0.5 to 0.5)); higher = stronger / more preferred TF binding; most listed sequences are background and not binding sites). Details: protein concentration: 200 nM; construct: GST-DNA-binding domain.
Chain of UniProt P0CE41 (P0CE41 whole entry, the tested form may be a part): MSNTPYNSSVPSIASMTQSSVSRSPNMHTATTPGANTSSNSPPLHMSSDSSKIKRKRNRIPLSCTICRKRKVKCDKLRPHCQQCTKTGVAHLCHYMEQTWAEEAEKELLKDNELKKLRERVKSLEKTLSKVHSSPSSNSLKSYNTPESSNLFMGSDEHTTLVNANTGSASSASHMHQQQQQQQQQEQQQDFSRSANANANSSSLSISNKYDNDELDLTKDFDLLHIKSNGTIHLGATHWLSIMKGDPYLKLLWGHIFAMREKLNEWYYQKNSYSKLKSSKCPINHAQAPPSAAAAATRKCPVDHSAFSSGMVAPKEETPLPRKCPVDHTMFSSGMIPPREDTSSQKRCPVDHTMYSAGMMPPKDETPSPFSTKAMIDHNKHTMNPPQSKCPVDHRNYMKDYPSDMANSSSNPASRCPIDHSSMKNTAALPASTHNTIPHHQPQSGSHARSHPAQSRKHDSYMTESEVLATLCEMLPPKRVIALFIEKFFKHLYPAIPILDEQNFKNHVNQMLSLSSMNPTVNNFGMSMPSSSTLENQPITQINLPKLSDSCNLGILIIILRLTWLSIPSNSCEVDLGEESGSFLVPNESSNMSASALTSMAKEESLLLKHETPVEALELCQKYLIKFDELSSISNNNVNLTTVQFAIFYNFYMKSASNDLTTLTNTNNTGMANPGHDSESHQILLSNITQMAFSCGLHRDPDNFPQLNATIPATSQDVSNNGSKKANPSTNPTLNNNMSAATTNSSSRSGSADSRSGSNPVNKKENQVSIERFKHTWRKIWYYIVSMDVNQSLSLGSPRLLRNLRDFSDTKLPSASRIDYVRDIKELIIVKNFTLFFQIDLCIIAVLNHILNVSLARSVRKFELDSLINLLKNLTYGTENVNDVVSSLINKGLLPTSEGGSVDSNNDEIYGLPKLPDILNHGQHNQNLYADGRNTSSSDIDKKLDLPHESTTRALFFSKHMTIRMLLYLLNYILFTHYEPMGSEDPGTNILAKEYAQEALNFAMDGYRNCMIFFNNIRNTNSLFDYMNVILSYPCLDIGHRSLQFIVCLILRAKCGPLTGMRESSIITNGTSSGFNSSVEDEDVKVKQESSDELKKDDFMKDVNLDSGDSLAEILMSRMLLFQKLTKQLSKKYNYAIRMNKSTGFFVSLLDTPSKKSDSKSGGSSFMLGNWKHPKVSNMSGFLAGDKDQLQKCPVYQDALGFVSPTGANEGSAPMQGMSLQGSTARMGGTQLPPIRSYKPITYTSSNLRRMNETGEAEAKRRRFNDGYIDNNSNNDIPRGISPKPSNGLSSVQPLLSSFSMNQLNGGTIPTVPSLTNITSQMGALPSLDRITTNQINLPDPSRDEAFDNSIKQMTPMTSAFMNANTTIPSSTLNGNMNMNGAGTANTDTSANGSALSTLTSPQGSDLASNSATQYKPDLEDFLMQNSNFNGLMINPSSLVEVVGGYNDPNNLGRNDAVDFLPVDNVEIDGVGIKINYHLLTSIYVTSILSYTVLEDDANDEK
Method in brief: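 GST-tagged yeast TFs (full-length or DNA-binding domain) were made by PURExpress in vitro transcription/translation and applied at about 100-200 nM to universal all-10-mer Agilent arrays. The arrays were made double-stranded by primer extension, on fresh or once-stripped slides. Bound protein was detected with fluorescent anti-GST, and scans were normalised with masliner. Each ungapped eight-base word, pooled with its reverse complement, received an E-score (modified Wilcoxon-Mann-Whitney statistic) from the Universal PBM Analysis Suite.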

| Sequence | PBM E-score |
| --- | --- |
| TAACTGGA | -0.142 |
| GCCGTGCA | -0.0218 |
| AACTTTTA | -0.016 |
| CCTCGTAC | 0.103 |
| ATGAGTAC | -0.0327 |
| CCTAGGTC | -0.142 |
| CTGTCAAG | -0.157 |
| GCTTTACC | 0.091 |
| CCTCAAAA | -0.0303 |
| CTGACAAG | -0.122 |
| GGAACCCC | 0.144 |
| ACATCACA | -0.117 |
| GCGTCAGA | -0.112 |
| GCCGATTA | 0.299 |
| AACTACTA | 0.019 |
| CCAGGCCC | -0.0511 |
| ATTGCCCC | -0.0427 |
| CCTACTAC | -0.117 |
| TCAATCGA | -0.0573 |
| ATCCCAAA | -0.0223 |
| CAGAGTGG | -0.211 |
| AGAAACAG | -0.108 |
| AGACGCCT | -0.202 |
| CATTAGGG | -0.211 |
| AAAGTAGT | -0.148 |

| Sequence | PBM E-score |
| --- | --- |
| GATTACCA | -0.0392 |
| ACGTAGTG | -0.114 |
| ACTAGACT | -0.206 |
| AGTGTCAA | -0.295 |
| CAGATATC | 0.199 |
| ACAAAGTC | -0.116 |
| ACGGTGCC | 0.0742 |
| CCGCTGAC | 0.112 |
| AGTGAAAA | 0.0463 |
| ACCTAGGT | -0.105 |
| CCCGCACG | 0.135 |
| GAATCACC | -0.0956 |
| GTATCGCA | 0.0745 |
| CGGGACCG | 0.341 |
| AATAAGCC | 0.149 |
| ACTGGTCT | 0.0361 |
| CGCAGTTA | 0.256 |
| CCGCCTGA | 0.102 |
| ATGAGCAT | -0.0227 |
| CAGGTTTA | -0.0176 |
| ATGAGAAA | -0.147 |
| TAAGACGA | -0.227 |
| AGCGATGA | 0.064 |
| GCCTGAAA | 0.0421 |
| GCGCACCC | 0.0489 |

| Sequence | PBM E-score |
| --- | --- |
| ACACACGG | 0.0536 |
| AACCGACC | 0.135 |
| ATGCTGAG | -0.281 |
| CAACGCAG | -0.111 |
| GAATAACC | 0.0699 |
| ACCCTTTC | -0.0409 |
| ACAGACGC | -0.0711 |
| GCCTCGTA | -0.0814 |
| GAACGTGA | 0.0153 |
| CACCTGCA | -0.165 |
| GTAGCCGA | 0.129 |
| CATGCTAA | -0.285 |
| GACGCTCC | 0.0274 |
| CGTCGGAG | 0.313 |
| GGGCGCCC | 0.354 |
| CACGTCTC | 0.0507 |
| ATAAACCG | 0.26 |
| CTAATGCA | -0.269 |
| GAGGGGCA | -0.17 |
| GGAAGGTA | -0.0638 |
| GAGTAACC | 0.13 |
| AGTGCTAT | -0.276 |
| CAATGAGG | -0.259 |
| CAATAGGC | -0.118 |
| CTGTATGC | -0.0753 |

| Sequence | PBM E-score |
| --- | --- |
| GAAAGATC | 0.111 |
| GGGGGGAA | 0.0101 |
| AGAGAAAC | -0.136 |
| CCAATGCA | -0.186 |
| GTAAACGA | -0.0548 |
| GTGACTGA | -0.323 |
| AACCGGCC | 0.344 |
| GCGAGAAA | 0.116 |
| TAACGTCA | -0.178 |
| CTGGGGCA | -0.306 |
| AGAACCCC | -0.0703 |
| AAGGCGCA | 0.0887 |
| CCACCTCG | 0.155 |
| ACTGCCTA | -0.375 |
| AAAAGTAA | -0.0896 |
| CACGACGG | -0.0484 |
| CCGAAAGG | 0.324 |
| CGATAGCC | 0.208 |
| AGGTGAAT | 0.104 |
| ACATCCAG | -0.19 |
| TGTATGAA | 0.0113 |
| GGGATTCA | 0.0681 |
| AACTTCAT | -0.147 |
| CCTGTTCG | -0.0675 |
| CTCGTATA | -0.115 |

| Sequence | PBM E-score |
| --- | --- |
| ACGCTTTG | 0.0213 |
| GCTATCCC | 0.0803 |
| CAGCCTAG | -0.192 |
| AGGACCAG | -0.0263 |
| ATCACGAG | -0.25 |
| AAGCAAAT | -0.24 |
| AGCGTAAG | -0.00114 |
| ATTGAACG | -0.214 |
| ATCGTTGC | -0.103 |
| CTGGTAAA | -0.073 |
| ACTGGCGC | -0.133 |
| CCCTTCTA | -0.239 |
| GGCACAGA | 0.032 |
| AGCCGCCT | 0.023 |
| CGCGGACG | 0.296 |
| ACTCTGAT | -0.106 |
| AGCCCCCG | 0.185 |
| ACAAGATA | -0.194 |
| CGCCAACG | 0.0387 |
| GGACGGAA | 0.26 |
| GCAGCGAC | -0.0343 |
| GGTTGCCA | -0.0357 |
| ATGACTAC | -0.225 |
| CTAAGCGA | -0.0284 |
| CCAGTAAG | -0.203 |

| Sequence | PBM E-score |
| --- | --- |
| GCGCAGCA | -0.114 |
| GCTCCTAC | -0.0888 |
| CATGTCGC | -0.0804 |
| AGCTAGGC | 0.00311 |
| ACGTCCCA | -0.184 |
| ACTGCGAA | -0.249 |
| AGGGTAGA | -0.191 |
| GGTACGGA | 0.157 |
| CCACTGTC | -0.176 |
| AGTTAAAG | -0.218 |
| CGCTTCTA | 0.0227 |
| TGCTAGCA | -0.176 |
| GCACACTA | -0.0548 |
| AAGTGCGA | 0.00701 |
| CCGCCTTC | -0.00226 |
| GCGTTTAA | 0.183 |
| CCCGAAGG | 0.219 |
| AGAACGCG | 0.113 |
| CCAGGAAA | -0.104 |
| CGCGCGAA | 0.196 |
| ACCATCTG | -0.102 |
| CCTTCCTA | -0.383 |
| GACGGCGA | 0.0437 |
| ACATTCCG | 0.243 |
| AACGAAGT | -0.253 |

| Sequence | PBM E-score |
| --- | --- |
| AAGCGAAA | 0.0588 |
| ACCGTGGC | -0.0125 |
| ATGATGAC | -0.0975 |
| AATCAAAG | -0.129 |
| AACACATG | -0.264 |
| CTCAGCAA | -0.163 |
| CAGGGCTA | -0.258 |
| AGTCTATA | -0.309 |
| AATTAAAG | -0.0509 |
| CACTCAAA | -0.197 |
| CGGGCAGA | 0.231 |
| AGAAGACG | -0.112 |
| GAACAACA | -0.155 |
| CAGTGCGG | 0.122 |
| CTTTCTAC | -0.196 |
| CTAAACTC | 0.112 |
| TCATTACA | -0.105 |
| ATTACATA | -0.266 |
| AGATTACT | -0.0847 |
| GCGGTGTA | -0.063 |
| AGATACCT | -0.0612 |
| CTAGAAAG | -0.0821 |
